Laboratory results taken from ChEMBL document CHEMBL1201862, “PubChem BioAssay data set” (2004).

What follows are compounds tested on NCI-H322M (assay: inhibition of tumour cell growth, NCI panel, 48 h).

Structure (SMILES) | GI50
Cc1c2oc3c(C)ccc(C(=O)N[C@@H]4C(=O)N[C@H](C(C)C)C(=O)N5CCC[C@H]5C(=O)N(C)CC(=O)N(C)[C@@H](C(C)C)C(=O)O[C@H]4C)c3nc-2c(C(=O)N[C@@H]2C(=O)N[C@H](C(C)C)C(=O)N3CCC[C@H]3C(=O)N(C)CC(=O)N(C)[C@@H](C(C)C)C(=O)O[C@H]2C)c(N)c1=O (I: [aThr][dV]P[Sar][NMeV] / II: [aThr][dV]P[Sar][NMeV]; ester I:1-I:C, II:1-II:C; linker I:N-II:N via Actinocin(1to9)) | active: 0.00221 µM
CC1=C2O[B-](c3ccccc3)(c3ccccc3)[O+]=C2C=CN1 | inactive: 88.1 µM
c1ccc2c(c1)cc(C1NCCc3nc[nH]c31)c1ccccc12 (stereo unspecified) | inactive: 61.1 µM
O=C(CC1C(=O)Nc2ccccc2[S+]1[O-])Nc1ccc(Cl)cc1 (stereo unspecified) | inactive: > 100 µM
COc1ccc(-c2nnc3nc4ccccc4n3c2O)cc1 | inactive: > 100 µM
CCOC(=O)c1c(C)c2c(n1C)CCc1c[nH]nc1-2 | inactive: > 100 µM
CCC(c1ccccc1)c1cc(C(C)(C)C)cc(C(C)(C)C)c1O (stereo unspecified) | inactive: 17.9 µM
CCN(CC)c1ccc2cc(-c3csc(-c4ccc(N(C)C)cc4)n3)c(=O)oc2c1 | inactive: > 100 µM
COc1cc(/C=C2\C[C@H]3[C@@H]4CCC5=CC(=O)CC[C@]5(C)[C@H]4CC[C@]3(C)C2=O)cc(OC)c1OC | inactive: 29.4 µM
Cc1sc2ncnc(NCCc3ccccc3)c2c1C | inactive: 13.2 µM
CC(CCc1ccc2c(c1)c(N)c1ccc(N)cc1[n+]2[O-])CC(C)(C)C (stereo unspecified) | inactive: 1.51 µM
Cn1c(=O)c2c(nc(N/N=C3/SCC(=O)N3Cc3ccccc3)n2C)n(C)c1=O | inactive: > 100 µM
CC(=O)O[C@H]1CC[C@@]2(C)C(=CC[C@H]3[C@@H]4C[C@H](N5CCCC5)[C@H](OC(C)=O)[C@@]4(C)CC[C@@H]32)C1 | inactive: > 100 µM
O=C(O)Cc1ccccc1 [PHENYLACETIC ACID] | inactive: > 100 µM
CS(=O)(=O)N(CCC#N)c1ccc(/C=N/NC(=O)CC(=O)Nc2cccc(Cl)c2)cc1 | inactive: > 100 µM
Nc1nc(Cl)c(CO)c(NCC2(CO)CC(CCc3ccccc3)C2)n1 (stereo unspecified) | inactive: 24.7 µM
O=c1nc2n3c4c(cccc4nc-2c(=O)[nH]1)CCC3 | inactive: > 100 µM
COc1ccc2cc3n(c2c1)CCc1cc(OC)c(OC)cc1-3 | inactive: > 100 µM
NC(Cc1c[nH]c2ccccc12)C(=O)O (stereo not drawn) [DL-TRYPTOPHAN] | inactive: > 300 µM
N#C/C(=C/c1cccc(Oc2ccccc2)c1)c1ccccc1 | inactive: > 100 µM
Cc1ccc(NC(=O)CC(=O)n2nc(-c3ccccc3)c(/N=N/c3ccc(Cl)cc3)c2-c2ccccc2)cc1 | inactive: > 100 µM

Structure (SMILES) | GI50
O=[As]O | inactive: > 100 µM
Clc1nc(Cl)c(Cc2ccccc2)c(Cl)n1 | inactive: 18.3 µM
O=c1c(O)c(-c2ccc(O)c(O)c2)oc2cc(O)cc(O)c12 [QUERCETIN] | inactive: 30.5 µM
COc1ccccc1CC(=O)C(O)(C(F)(F)F)C(F)(F)F | inactive: > 100 µM
O=C1/C(=C/c2cccc(Cl)c2)CCCc2ccccc21 | inactive: 17.8 µM
CCOc1ccccc1/N=N/c1c(-c2ccccc2)nn(C(=O)CC(=O)Nc2cccc(C)c2)c1-c1ccccc1 | inactive: > 100 µM
C=C(CBr)CCCOCc1ccccc1 | inactive: > 100 µM
O=C1NC(=O)C2C1C1C=C3c4ccccc4N(c4ccccc4)C32[C@H]2C(=O)NC(=O)[C@@H]12 (stereo partly specified) | inactive: > 100 µM
O=[N+]([O-])c1cc2ccc(N(CCO)CCO)nc2nc1N(CCO)CCO | inactive: > 100 µM
COc1ccc(C(O)c2ccccn2)cc1 (stereo unspecified) | inactive: > 100 µM
CC1(C)c2ccccc2C(C)(C)C(C(=O)Nc2ccccc2)C1C(=O)O (stereo unspecified) | inactive: > 100 µM
OC(C1CCCC1=N/N=C1/CCCC1C(O)(C(F)(F)Cl)C(F)(F)Cl)(C(F)(F)Cl)C(F)(F)Cl (stereo unspecified) | inactive: > 10 µM
CN1C[C@H](C(=O)N[C@]2(C)O[C@@]3(O)[C@@H]4CCCN4C(=O)[C@H](Cc4ccccc4)N3C2=O)C=C2c3cccc4[nH]cc(c34)C[C@H]21 [ERGOTAMINE TARTRATE] | inactive: 38.9 µM
O=C(/N=c1/[nH]/c(=N/C(=O)c2ccccc2)ss1)c1ccccc1 | inactive: 37 µM
C#CCn1ncc2c(SC)ncnc21 | inactive: > 100 µM
CC(OC(C)(C)C)C(NC(=O)C(CCCCNC(=O)OC(C)(C)C)NC(=O)C(Cc1c[nH]c2ccccc12)NC(=O)C(Cc1ccccc1)NC(=O)OCC1c2ccccc2-c2ccccc21)C(=O)NC(Cc1ccccc1)C(=O)N[C@@H]1CCC[C@H]1C(=O)OCc1ccccc1 (stereo partly specified) (Fmoc-[ξF][ξW][ξK](Boc)[ξT](tBu)[ξF]-X34) | inactive: > 100 µM
CCOC(=O)C1=C(C)N(Cc2ccccc2)C2(O)C=CC(O)=C3C(=O)c4ccccc4C(=O)C312 (stereo unspecified) | inactive: 14.6 µM
CC/C(CC(=O)CCC(=O)Nc1ccc(C)c(C)c1)=N\NC(=O)c1cc2ccccc2cc1O | inactive: 28.8 µM
O=C1Nc2c(Cl)cccc2/C1=N/Nc1ccccc1[N+](=O)[O-] | inactive: 30.8 µM
O=c1c(-c2ccccc2)c2oc(c1-c1ccccc1)CSCc1cccc(c1)CSC2 | inactive: 32 µM
c1ccc2c(c1)nc1n2CCCn2ccnc2-1 | inactive: 92.5 µM

Structure (SMILES) | GI50
CC(C)(C)c1cc(S(=O)(=O)O)c2oc(-c3ccccc3)cc(=O)c2c1 | inactive: > 100 µM
CCOC(=O)C(=O)Nc1c(CC)cccc1C(C)CC (stereo unspecified) | inactive: > 100 µM
CC(C)S(=O)(=O)n1c(N)nc2ccc(/C(=N/O)c3ccccc3)cc21 [ENVIROXIME] | inactive: 21.3 µM
CC(Oc1ccccc1Cl)C(=O)NN1C(=O)CC(=O)N(c2ccccc2)C1=S (stereo unspecified) | inactive: 57.1 µM
CCCC(=O)N(C(=O)CCC)C1=C(Cl)C(=O)c2ccccc2C1=O | inactive: 44.6 µM
O=C(/C=C/c1ccccc1O)c1cccc2ccccc12 | inactive: > 61.7 µM
NS(=O)(=O)c1cc2c(cc1Cl)NCNS2(=O)=O [HYDROCHLOROTHIAZIDE] | inactive: > 100 µM
O=C1C(Br)=C(c2ccccc2)C(c2ccccc2)=C1c1ccccc1 | inactive: 16 µM
CN(C)c1ccc(/N=N\c2cccc3ncccc23)cc1 | inactive: > 100 µM
CC(C)CCCC(C)[C@H]1CC[C@H]2n3c(nnc3-c3ccccc3)CCC[C@]12C (stereo partly specified) | inactive: 16.4 µM
O=[N+]([O-])c1cc2oc(COc3ccccc3)nc2cc1Cl | inactive: 35.6 µM
CCOC(=O)/C(C(=S)Nc1ccccc1)=C(/N)N1CCCC1 | inactive: > 100 µM
CCN(CC)CCCNC(=O)c1ccc([N+](=O)[O-])cc1O | inactive: > 100 µM
CC(C)(C)OC(=O)N1C(C2=COc3ccccc3O2)=COc2cccnc21 | inactive: 1.83 µM
Cc1nc(-[n+]2nc(-c3ccncc3)nn2-c2ccccc2)sc1C | inactive: 74.5 µM
O=C1OCC=C1COC1OC(CO)C(O)C(O)C1O (stereo unspecified) | inactive: > 100 µM
Cc1cc(O)nc(NN2C(Cl)C(=O)C2c2ccc([N+](=O)[O-])cc2)n1 (stereo unspecified) | inactive: 11.8 µM
O=C(O)c1ccccc1/N=N/c1ccc2oc(=O)c(C(=O)Nc3ccccc3)cc2c1 | inactive: 41.1 µM
OC1(C(F)(F)F)OCCN=C1C(F)(F)F (stereo unspecified) | inactive: > 100 µM

Counter-ions that a name gives are not always drawn.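 How tested: cells in 96-well plates exposed to compound for 48 hours at five concentrations. GI50 marks 50% less growth.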 Activity calls are given as the source filed them. Rule as the data show it: active = GI50 up to about 1.1 µM and inactive = higher. Numbered stars: 1 amine (or outer) side, 2 acyl side, 3 side chain; on linkers, the order of the positions; unused ones are H or OH. Bridge positions count the residues as written; N and C are the ends. Square brackets hold non-standard residues; d marks the D form. Peptide text beside a SMILES is read from it. I, II: the chains in the order shown. * marks the point of attachment. ξ: configuration not given here. Actinocin(1to9) = Cc1c2oc3c(C)ccc(C(=O)[*:2])c3nc-2c(C(=O)[*:1])c(N)c1=O; X34 = O=C(OCc1ccccc1)[C@@H]1CCC[C@H]1N*; Fmoc = O=C(OCC1c2ccccc2-c2ccccc21)*; ξW = NC(Cc1c[nH]c2ccccc12)C(=O)O; aThr = C[C@H](O)[C@H](N)C(=O)O; NMeV = CN[C@H](C(=O)O)C(C)C; ξF = NC(Cc1ccccc1)C(=O)O; Boc = CC(C)(C)OC(=O)*; ξK = NCCCCC(N)C(=O)O; ξT = CC(O)C(N)C(=O)O; Sar = CNCC(=O)O; tBu = CC(C)(C)*
